Measurements as given in the antibiotic and cytotoxicity screens of Wong et al. (2023).
This is one part of the list.

system: HepG2; test: cytotoxicity call (relative viability < 0.9); details: 10 µM

| Structure (SMILES) | cytotoxicity call |
| --- | --- |
| CCc1cccc(C)c1NC(C)=O | inactive |
| CC(C)(C)[S@](=O)N1Cc2cc(C(=O)NCc3ccccn3)nc(-c3cccc(-c4ccccc4F)c3)c2[C@@H]1CCO | inactive |
| COc1ccc(S(=O)(=O)N(C)C[C@H]2Oc3ccc(NC(=O)NC(C)C)cc3C(=O)N([C@H](C)CO)C[C@@H]2C)cc1 | inactive |
| C[C@@H]1CN([C@@H](C)CO)C(=O)c2cc(NS(=O)(=O)c3cccs3)ccc2O[C@@H]1CN(C)S(=O)(=O)c1cn(C)cn1 | inactive |
| C[C@H](CO)N1C[C@H](C)[C@@H](CN(C)Cc2ccccc2)OCCCC[C@H](C)Oc2ccc(NS(=O)(=O)c3cccs3)cc2C1=O | inactive |
| C[C@H](CO)N1C[C@H](C)[C@@H](CN(C)S(C)(=O)=O)Oc2ccc(NC(=O)Cc3ccccc3)cc2CC1=O | inactive |
| Cn1cnc(S(=O)(=O)N2C[C@H](O)COC[C@H]3O[C@H](CC(=O)NCc4cccc(F)c4)CC[C@@H]32)c1 | inactive |
| Cc1noc(C)c1S(=O)(=O)N(C)C[C@@H]1Oc2c(NC(=O)C3CC3)cccc2C(=O)N([C@@H](C)CO)C[C@@H]1C | inactive |
| C[C@@H](NC(=O)C[C@H]1C=C[C@@H](NC(=O)CN2CCOCC2)[C@H](CO)O1)c1ccccc1 | inactive |

system: S. aureus RN4220; test: growth inhibition call (relative growth <= 0.2); details: 50 µM

| Structure (SMILES) | growth inhibition call |
| --- | --- |
| C[C@@H]1CN([C@H](C)CO)C(=O)c2cc(NC(=O)CCCN(C)C)ccc2O[C@H]1CN(C)S(=O)(=O)c1ccc(Cl)cc1 | inactive |
| C[C@H]1CN([C@@H](C)CO)C(=O)c2cc(NS(C)(=O)=O)ccc2O[C@@H]1CN(C)C(=O)Nc1ccccc1 | inactive |
| C[C@H](CO)N1C[C@H](C)[C@H](CN(C)C(=O)Nc2cccc3ccccc23)Oc2c(NC(=O)Nc3ccc(F)cc3)cccc2C1=O | inactive |
| CCCCC(=O)N(Cc1ccc(-c2ccccc2-c2nn[nH]n2)cc1)C(C(=O)O)C(C)C (stereo not given) | inactive |
| O=C(Nc1ccc2c(c1)[C@@H]1C[C@H](CC(=O)N3CCc4ccccc4C3)O[C@H](CO)[C@@H]1O2)C1CCOCC1 | inactive |
| C[C@@H]1CN([C@@H](C)CO)C(=O)c2cc(Br)cnc2O[C@@H]1CN(C)C(=O)CN1CCOCC1 | inactive |
| C[C@@H]1CN([C@@H](C)CO)C(=O)c2cccc(NC(=O)c3ccc(-c4nccs4)cc3)c2O[C@H]1CN(C)C(=O)NC1CCCCC1 | inactive |
| COc1ccc2c3c(n(c2c1)C)[C@@H](CO)N(C[C@]13CN(CC2CCOCC2)C1)C(=O)c1ccc(cc1)F | inactive |
| Cc1ccc(S(=O)(=O)Nc2ccc3c(c2)CC(=O)N([C@H](C)CO)C[C@H](C)[C@H](CN(C)S(=O)(=O)c2cccs2)O3)cc1 | inactive |
| COc1cc(C=O)ccc1O | inactive |
| Cc1ccc(S(=O)(=O)N(C)C[C@H]2Oc3c(NC(=O)C4CC4)cccc3C(=O)N([C@H](C)CO)C[C@H]2C)cc1 | inactive |
| COc1ccc(S(=O)(=O)Nc2cccc3c2O[C@@H](CN(C)S(=O)(=O)c2ccccc2)[C@H](C)CN([C@H](C)CO)C3=O)cc1 | inactive |
| COc1ccc(CN(C)C[C@H]2Oc3ccc(NC(=O)Nc4cccc5ccccc45)cc3CC(=O)N([C@@H](C)CO)C[C@@H]2C)cc1 | inactive |
| COc1ccc2c3c([nH]c2c1)[C@@H](CO)N(C[C@]13CN(C1)S(=O)(=O)C)C(=O)c1cnccn1 | inactive |
| C[C@@H]1O[C@@H](O[C@H]2[C@H](Oc3cc(O)c4c(c3)O[C@H](c3ccc(O)cc3)CC4=O)O[C@H](CO)[C@@H](O)[C@@H]2O)[C@H](O)[C@H](O)[C@H]1O | inactive |
| C[C@@H]1CN([C@@H](C)CO)C(=O)c2cccc(NC(=O)c3ccc(-c4nccs4)cc3)c2O[C@H]1CN(C)S(=O)(=O)c1ccc(Cl)cc1 | inactive |
| COc1ccc(NC(=O)N(C)C[C@H]2Oc3ccc(NS(C)(=O)=O)cc3C(=O)N([C@H](C)CO)C[C@@H]2C)cc1 | inactive |
| CC(C)CC#Cc1ccc2c(c1)O[C@H](CN(C)C(=O)NC1CCCC1)[C@H](C)CN([C@@H](C)CO)S2(=O)=O | inactive |
| COCC(=O)N(C)C[C@@H]1Oc2cc(C#CCC3CCCC3)ccc2S(=O)(=O)N([C@@H](C)CO)C[C@H]1C | inactive |
| C[C@H](CO)N1C[C@H](C)[C@@H](CN(C)C(=O)Nc2ccc3c(c2)OCO3)Oc2ccc(NC(=O)Cn3cnnn3)cc2CC1=O | inactive |
| C[C@@H]1CN([C@H](C)CO)S(=O)(=O)c2ccc(C#CC(C)(C)O)cc2O[C@H]1CN(C)C(=O)C1CCCCC1 | inactive |
